Some of the results follow.
T1: UNK ZnF1-3 (human, UniProt Q9C0B0 31-174)
T1 sequence: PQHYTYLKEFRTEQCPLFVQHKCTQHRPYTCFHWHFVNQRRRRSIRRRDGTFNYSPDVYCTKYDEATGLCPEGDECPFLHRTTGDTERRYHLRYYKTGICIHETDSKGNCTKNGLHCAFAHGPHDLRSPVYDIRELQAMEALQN

B1: chr4:76721835:76721836:+_ENSG00000138768_ENST00000264904|hu_mus|hu_hu_hu_mus_True|1_8 (ssRNA)
RNA: GGGAGUUCUACAGUCCGACGAUCGUUUGGCUGGGGUUUCUGAGACGCUCUGGAAUAUAACUCAUGUUUGCUAAUAAAUCCUAGUUUCUCUAUGAAAUUCUCUUUGCCAAUCCUCUUCUCUAUUAGUGUUUUAGCUUCUCUUUCCAACAGAGGAUUGAGCAUCA
B2: chr12:39763582:39763583:-_ENSG00000139116_ENST00000544797|hu_mus|hu_hu_hu_mus_False|1_108 (ssRNA)
RNA: GGGAGUUCUACAGUCCGACGAUCCUCUAAGAAUUGGGCAUUCACUUUGAAUUCAGGAGGGGGCAGCCCGUUUUUAAUCGCUGAGGUCUUUUUCUCAUCAAUACUCUUGAACAGGUGUCUAACAGCACGAGAGAUGAUACCCAGCAACAGAGGAUUGAGCAUCA
B3: 134309471_134309591_2189_3pUTR_ENSG00000028839_ENST00000237264|human|control|control (ssRNA)
RNA: GGGAGUUCUACAGUCCGACGAUCGAACAUUGUGUUGGAAUAUUGUCCCCAUUAAGUUUCUCCUGAGAAGCUAAUUGGACUCUCCACUCAGCUUUAUUUCUAGGUAUAAUCACUGUUGGUUACACUAAACUCCUAAACCUAAAUCAACAGAGGAUUGAGCAUCA
B4: chr1:182792627:182792628:+_ENSMUSG00000038806_ENSMUST00000038091|mus_hu|FALSE|FALSE (ssRNA)
RNA: GGGAGUUCUACAGUCCGACGAUCGUCUGUAUUCACUACUCUCGCCCUCUGAGAACCACUGGGAAAUUUGGCUGCCAUCUCGACACCAUUGCUACCAAUUUUUGGAGCAUGGAAACCCAUUCCUGAAGUGCUUGGUGCUUCUUCCAACAGAGGAUUGAGCAUCA
B5: chr17:60770872:60770873:+_ENSG00000011028_ENST00000303375|hu_hu|hu_hu_hu_mus_True|38_68 (ssRNA)
RNA: GGGAGUUCUACAGUCCGACGAUCUCUUUAAAAAAAAAAAAAAAAAGACAAACAAUAAUAGCACAUUAUUUAAAAAAAGAACUACAAUAGAGGGUCCAUGUCUUCGAUUUGUUCACAUCGUCCUGCACUGGGACACGGGGACUGCAACAGAGGAUUGAGCAUCA
B6: 31380325_31381241_1545_CDS_ENSG00000196792_ENST00000355683|human|control|control (ssRNA)
RNA: GGGAGUUCUACAGUCCGACGAUCCUGUUCUCCAUUAGAACUAAUAGCUAAUGACAGAACAGGGCCGAUGUGGGCCCUAAAUGUGUAGAUAGGCUCUACAUCUAAAGAGGCACUCUUUUUGGCAGGAACUGUUUUUUGCAGGUUCAACAGAGGAUUGAGCAUCA
B7: chr16:29586362:29586363:+_ENSMUSG00000038084_ENSMUST00000160597|mus_hu|FALSE|FALSE (ssRNA)
RNA: GGGAGUUCUACAGUCCGACGAUCGCCACCCCCAACAGCCGAUCCUAGUAUGAGAUAGCGAAGUUUUAAGAGUCUCGUAGCUAAUCUUGCUGGCCAAAAAUUCCUGCGAGGCUGGUAGCCAUAUUUAAUUGGAGAGAAUUUCAGCAACAGAGGAUUGAGCAUCA
B8: 134633431_134633551_1114_CDS_ENSMUSG00000042423_ENSMUST00000048896|mouse|control|control (ssRNA)
RNA: GGGAGUUCUACAGUCCGACGAUCCUCAUAGAAGCGUGGUGGCCUGGCCAGGCGUGGGGGCCCUGCCAACCAGGUUGGCUCUGGGAAGCCUGCACAGCGCUCUGGCAGGCUAGGGCCAAGAAAUGGGGGUGGCCGAGGCCUCUCCAACAGAGGAUUGAGCAUCA
B9: chr4:106721038:106721039:+_ENSMUSG00000061887_ENSMUST00000030367|mus_mus|FALSE|FALSE (ssRNA)
RNA: GGGAGUUCUACAGUCCGACGAUCUUUCCUUUUUUUAAAGAAGAAAGCAAAGAGGUUGAUUGGGGUGGGGCAUAGGGCUUGCUAGAAGCUUCCAUUAAAAAAAAAAUUCCCCCAAAGAACACCCCCCACCCCGGGAAAAAAAAACAACAGAGGAUUGAGCAUCA
B10: 36030888_36031168_1329_CDS_ENSG00000197122_ENST00000358208|human|control|control (ssRNA)
RNA: GGGAGUUCUACAGUCCGACGAUCGAUGGGGAAUUUGGCACCUUGCCGCGCCGUGUACUCAUUGUCUUCAAUGAGCCGAGCCAGCCCAAAGUCCGCCACUUUGCACACCAGGUUCUCUCCCACCAGGAUGUUGGCUGCACGAAGCAACAGAGGAUUGAGCAUCA
B11: chr14:68739401:68739402:-_ENSMUSG00000022054_ENSMUST00000022638|mus_hu|FALSE|FALSE (ssRNA)
RNA: GGGAGUUCUACAGUCCGACGAUCUAUUGUGAUUGGGGGUCGGUGUGUAUACAGUGGCCCAGUGAUGCUUCCUGCAAAUGUGCUAAAUCUAGUCUCUUCACCCUCCAGGAGUUUUCUGUACGCAGCGAUUUCUAUAUCCAGAGCCAACAGAGGAUUGAGCAUCA
B12: 119570367_119580680_3109_CDS_ENSMUSG00000030172_ENSMUST00000032279|mouse|control|control (ssRNA)
RNA: GGGAGUUCUACAGUCCGACGAUCGGAGGAUCUGAAGUGGUCAUCCUCAUAGUUGUCAGCCAUUAAUUUCAUUCGAUUUUGUGUCUGCUGUUUGAGCUGCUGCACCAGGCGGUCCUUUUCCCGUUUCAGUGCAGCCACUUCUUCCAACAGAGGAUUGAGCAUCA
B13: chr4:39507275:39507276:-_ENSG00000109814_ENST00000316423|hu_hu|motif|central (ssRNA)
RNA: GGGAGUUCUACAGUCCGACGAUCACUAGAAGAUUCUCUUGUAUCACCAGUGUCCUUUUUGAAUGCAAAUCCCAAAAUAGCGGUCUUCUUAUCAGUUACUGUAUUAAACAGACUAUCUAUGAUCCGGGAAGCAAACCUCCUCCUCAACAGAGGAUUGAGCAUCA
B14: chr14:89307221:89307222:+_ENSG00000165533_ENST00000346301|hu_mus|hu_hu_hu_mus_False|18_38 (ssRNA)
RNA: GGGAGUUCUACAGUCCGACGAUCUCCUGUUUGGUUAGUGCCAGGGAGCUUCAAAGAUGUGCCAGGGCGUGGGACCUGAGCAAUAGCAUUUUCAUCCAGCAUCAUUUCAGCAAUUCCUUCCUGAUCUACAUCAAUUUCAUCUAUCAACAGAGGAUUGAGCAUCA
B15: chr16:94913618:94913619:+_ENSMUSG00000022897_ENSMUST00000122284|mus_mus|FALSE|FALSE (ssRNA)
RNA: GGGAGUUCUACAGUCCGACGAUCAGUCAUGUAAUGUGCAGGACCUGUAUUAGCAGAAAAUUGGUAUGUUGGAUGUCCAGCUAUGCCAGUCUCUUGGCGGGGAUUGGAGUAGACGGUCAAAUUAACGUCCAUAGCUCCAUUCUGCAACAGAGGAUUGAGCAUCA
B16: chr3:119450855:119450856:-_ENSMUSG00000028134_ENSMUST00000029780|mus_hu|mus_mus_mus_hu_False|48_98 (ssRNA)
RNA: GGGAGUUCUACAGUCCGACGAUCUGUGGUGCCACUAAGAGGUGUAUUUGCUGUCUGGACAGCUGUCACAGCUUGAAGAACUGCCUGCGCACGUUGGUUUAAUGUAUUAUCUGUCUUUAGUUCUUUGUGAUUCGAGUACUGGAUCAACAGAGGAUUGAGCAUCA
B17: chr7:141438946:141438947:+_ENSG00000106028_ENST00000265304|hu_mus|hu_hu_hu_mus_True|38_108 (ssRNA)
RNA: GGGAGUUCUACAGUCCGACGAUCGACUACCUGUAAUUAACACAGGUCUUCGAAACAUGGCUUCUGUUUUUCUUACAACCUAAUCUUUAGGCUUUUCCUGACGAUCUGAAAGAAAAGAGAAAAAUGAUAAAUCAAGAAACUACACAACAGAGGAUUGAGCAUCA
B18: chr1:17371331:17371332:-_ENSG00000117118_ENST00000375499|hu_hu|FALSE|FALSE (ssRNA)
RNA: GGGAGUUCUACAGUCCGACGAUCAGUCUGCAUAUGAGGUUUGUCUCCAGCCUUGUCUGGGUCCCAUCGAUAGAUGGCAAAUUUCUUGAUACGGGGAGCUGUGGCUGCAGCUGUCUGGGCUCCUCGGGAGGCCUGCAGGCAGGCCAACAGAGGAUUGAGCAUCA
B19: chr13:51244491:51244492:+_ENSMUSG00000021395_ENSMUST00000095797|mus_mus|FALSE|FALSE (ssRNA)
RNA: GGGAGUUCUACAGUCCGACGAUCCAAAGUUUGUGAUGACAUCUAGGAUGUUUUCACCAAAUCGUAGACGUAAAUAUGGAAAUCGUCAUCAAACUUGAUGAAAUAGACAGAGGGCUUGGCCUCUACUUGGUGGAUGACCAUGCCCAACAGAGGAUUGAGCAUCA
B20: chr17:65740002:65740003:+_ENSG00000130935_ENST00000581375|hu_hu|hu_hu_hu_mus_False|18_78 (ssRNA)
RNA: GGGAGUUCUACAGUCCGACGAUCAACAAAUCUUUCUUCCCUGGACGAACAGGAAGACAUAAAAGAGAAAAAAUAUAUAUCCAUCAAGUUAGGUGUGGUGGCCACACCUUUACUCCCCACUUCAAUUGAGGUGGAUCUCUGAGUCAACAGAGGAUUGAGCAUCA
B21: chr2:47387770:47387771:-_ENSG00000143933_ENST00000272298|hu_mus|hu_hu_hu_mus_True|1_28 (ssRNA)
RNA: GGGAGUUCUACAGUCCGACGAUCAAGGUUUAAGGACAAUGACAGUAAGAUAAGGGAAGAAAACAUGGAGGAAUGAAGUCCUAAUUACUAUACAUGCAUAUUUUUUGGACAGUAGGGGGGGGAACCUUUUACAGAUAUUACAAACAACAGAGGAUUGAGCAUCA
B22: chr5:40767622:40767623:-_ENSG00000132356_ENST00000397128|hu_mus|hu_hu_hu_mus_False|58_108 (ssRNA)
RNA: GGGAGUUCUACAGUCCGACGAUCAUCUUUGAUUGUGGCCCUCUUCAUGGGAUCCACCUGCAGCAUAUGUUUCAAAAGGCUAAUCACUGAAGGGUUUAAGUACUGAGGGGUAUAAAAGAUCCCAUCACAUAUCUUCUUAAAAAGCAACAGAGGAUUGAGCAUCA

biological target: T1, UNK ZnF1-3; assay: nsRBNS (natural sequence RNA bind-n-seq); RBNS binding buffer (assumed for nsRBNS): 25 mM Tris pH 7.5, 150 mM KCl, 3 mM MgCl2, 0.01% Triton X-100, 500 ug/ml BSA, 20 U/ml SUPERase-In, 4 C; UNK is unkempt and MSI1 is Musashi-1; names of the RNAs are library labels; protein concentration not given here; high values mean tight binding

Binder | binding signal
B1 | 0.46 enrichment R
B2 | 1.19 enrichment R
B3 | 0.637 enrichment R
B4 | 0.698 enrichment R
B5 | 2.71 enrichment R
B6 | 1.03 enrichment R
B7 | 1.52 enrichment R
B8 | 0.637 enrichment R
B9 | 1.42 enrichment R
B10 | 1.01 enrichment R
B11 | 0.959 enrichment R
B12 | 0.424 enrichment R
B13 | 1.08 enrichment R
B14 | 1.06 enrichment R
B15 | 1.49 enrichment R
B16 | 0.65 enrichment R
B17 | 0.727 enrichment R
B18 | 1.92 enrichment R
B19 | 0.622 enrichment R
B20 | 0.753 enrichment R
B21 | 2.35 enrichment R
B22 | 1.07 enrichment R

From publication PMC12136788
